Out of some 370,000 compounds screened, about 150 (0.041%) were called active. This list was built around the results that the source calls inconclusive (neither active nor inactive); the mix of calls is not that of the screen. Calls come from the whole dose curve; as a rule, active = well fitted inhibition curve with a large enough effect; inconclusive = small, poorly fitted or top-dose-only effect; inactive = flat fitted curve, though single readings scatter. No potency is given beside an inconclusive call; the fits are too rough.
The compounds below were run against Beta-lactamase (Escherichia coli (strain K12)) (UniProt P00811) (assay: qHTS Inhibitors of AmpC Beta-Lactamase (assay with detergent)). Conditions: AmpC hydrolysis of nitrocefin, absorbance 480 nm, 0.01% Triton; series mostly up to 114 µM.
How it was run: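 AmpC (5.3 nM in the dispensed reagent) in 20 mM phosphate pH 7.0 with 0.01% (detergent screen) or 0.0001% Triton X-100 was preincubated with compounds for 15 min at room temperature. Nitrocefin was then added from an 800 uM solution, and hydrolysis was followed at 480 nm.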
Note: nearly all actives have a fitted effect of over 25% in size.
Potency is the fitted concentration of half-maximal effect; tags give direction and shape of the fitted curve.

UniProt P00811, sequence (P00811 whole entry, looked up): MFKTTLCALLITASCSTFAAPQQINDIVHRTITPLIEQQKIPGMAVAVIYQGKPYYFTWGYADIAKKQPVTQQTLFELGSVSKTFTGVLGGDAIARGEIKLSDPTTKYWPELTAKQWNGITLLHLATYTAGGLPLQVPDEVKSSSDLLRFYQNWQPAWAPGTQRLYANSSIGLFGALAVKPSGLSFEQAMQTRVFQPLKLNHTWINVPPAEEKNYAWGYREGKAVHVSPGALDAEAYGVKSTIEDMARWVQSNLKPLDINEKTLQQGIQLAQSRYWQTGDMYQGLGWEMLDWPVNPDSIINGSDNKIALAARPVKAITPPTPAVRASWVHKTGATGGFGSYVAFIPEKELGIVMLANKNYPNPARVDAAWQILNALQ

Row | Compound | Potency
1 | COCCn1c(-c2cccs2)nc2c(c(=O)c3ccccc3n2C)c1=O | inactive
2 | COc1c(C)cccc1C(=O)Nc1ccc(N2CCN(C(=O)c3ccccc3C)CC2)cc1 | inconclusive [inhibitor, single point]
3 | COc1ccc(C2C(C#N)=C(SCC(=O)Nc3ccc(C)cc3)NC3=C2C(=O)CC(C)(C)C3)cc1 (stereo not given) | inactive
4 | C=CCNc1nc2c3ccccc3n(C(C)=O)c2s1 | inactive
5 | Cc1ccc(S(=O)(=O)N2CCN(C(=O)CCC(=O)NC3CCCc4ccccc43)CC2)cc1 (stereo not given) | inconclusive [inhibitor, full curve, poor fit]
6 | COc1ccc(C(=O)Nc2ccnn2C2CCN(Cc3ccncc3)CC2)cc1 | inconclusive [inhibitor, full curve, poor fit]
7 | COc1ccc(S(=O)(=O)N2CCOCC2)cc1NC(=O)CSc1nnc2c(n1)[nH]c1ccccc12 | inconclusive [inhibitor, full curve, poor fit]
8 | NS(=O)(=O)c1cccc(NC(=O)CCN2C(=O)C3CCCCC3C2=O)c1 (stereo not given) | inconclusive [inhibitor, full curve, poor fit]
9 | CCN1C(=O)/C(=C/c2ccc(C)o2)N(C)C1=S | inconclusive [inhibitor, partial curve, poor fit]
10 | CS(=O)(=O)N(CC(=O)Nc1ccc2c(c1)OCO2)Cc1ccc(Cl)cc1 | inactive
11 | Clc1cccc(N2CCNCC2)c1Cl | inconclusive [inhibitor, partial curve, poor fit]
12 | COc1ccc(CC(=O)N2CCN(C(=O)Cc3ccc(OC)cc3)CC2)cc1 | inactive
13 | CSc1c(-c2ccccc2)nc2ccccc2c1C(=O)O | inconclusive [inhibitor, single point]
14 | O=c1cc[nH]c2c1ccc1cccnc12 | inconclusive [inhibitor, single point]
15 | Cn1ncc2c(NNC(=O)c3ccc(O)cc3)ncnc21 | inconclusive [inhibitor, full curve, poor fit]
16 | CNC(=S)N1N=C(c2ccc(C)cc2)CC1c1ccc(Cl)cc1 (stereo not given) | inactive
17 | CCCC(=O)N(CCN(Cc1ccccc1)C(=O)CCC)Cc1ccccc1 | inconclusive [inhibitor, partial curve]
18 | Cc1cccc(OCc2n[nH]c(=S)n2C2CCCCC2)c1 | inconclusive [inhibitor, full curve, poor fit]
19 | COc1cccc(CCNC(=O)c2ccc(C#N)cc2)c1 | inactive
20 | COc1c(C)cc(S(=O)(=O)NCc2ccccn2)c(C)c1C | inconclusive [inhibitor, full curve, poor fit]
21 | CCN1C(=O)C2(c3ccccc31)c1c(oc3ccc(F)cc3c1=O)C(=O)N2CCCOC (stereo not given) | inactive
22 | CC(C)(Oc1ccc(Cl)cc1)C(=O)NCC(c1ccco1)N1CCCCC1 (stereo not given) | inconclusive [inhibitor, single point]
23 | O=C(CSC1=Nc2ccccc2C2CC=NN12)Nc1ccc2c(c1)OCO2 (stereo not given) | inconclusive [inhibitor, full curve, poor fit]

Row | Compound | Potency
24 | CC(C)(C)OC(=O)N1CCC(c2c(C(=O)NCC3CCN(C4CCCC4)C3)cnn2-c2cccc(Cl)c2)CC1 (stereo not given) | inconclusive [inhibitor, full curve, poor fit]
25 | CCOC(=O)C1=C(C)NC(=S)NC1c1cccs1 (stereo not given) | inconclusive [inhibitor, partial curve]
26 | O=C(Oc1ccc(C(=S)N2CCOCC2)cc1)c1ccc(Br)cc1 | inactive
27 | O=C(Nc1cccc(F)c1)/C(=C\c1cccnc1)NC(=O)c1cccs1 | inconclusive [inhibitor, full curve]
28 | c1ccc(C2CN3CCSC3=N2)cc1 (stereo not given) | inconclusive [inhibitor, full curve, poor fit]
29 | CCOC(=O)N1CCN(c2nc3ccccc3nc2C(C#N)C(=O)NCCc2ccccc2)CC1 (stereo not given) | inactive
30 | N=c1n(CCN2CCCCC2)c2ccccc2n1CC(O)c1cccc(Br)c1 (stereo not given) | inactive
31 | CCOC(=O)c1cnc2ccc(OCC)cc2c1N1CCN(c2ccccc2OC)CC1 | inconclusive [inhibitor, full curve, poor fit]
32 | COC(=O)c1ccc(COc2cc(O)c3c(c2)OC(C)(C)CC3=O)cc1 | inactive
33 | Cc1ncoc1C(=O)Nc1ccc2c(c1)OCCO2 | inconclusive [inhibitor, single point]
34 | Cc1c(NC(=S)NC(=O)c2ccccc2Br)c(=O)n(-c2ccccc2)n1C | inactive
35 | O=C(COc1ccccc1)N/N=C/c1ccc(O[C@@H]2O[C@H](CO)[C@@H](O)[C@H](O)[C@H]2O)cc1 | inconclusive [inhibitor, full curve]
36 | COc1ccccc1Cn1cc(C(=O)c2ccc(C)cc2)c(=O)c2cc(F)cc(F)c21 | inconclusive [inhibitor, single point]
37 | CCOC(=O)/C(C#N)=C/c1ccc(-c2ccc(C)cc2)o1 | inactive
38 | Cc1ccc(-n2nc3c(=O)n(CCCC(=O)NC(C)c4ccccc4)nc(C)c3c2C)cc1 (stereo not given) | inactive
39 | CC1CCCN(CC(O)COc2ccc(-c3ccccc3)cc2)C1 (stereo not given) | inactive
40 | O=C(NCC(=O)N1CCOCC1)OCc1ccccc1 | inconclusive [inhibitor, single point]
41 | CCCCCC/C=N/Nc1nnc(Cc2ccc(OC)c(OC)c2)c(=O)[nH]1 | inactive
42 | CCCCN(CC(=O)Nc1cccc(S(=O)(=O)N2CCCC2)c1)Cc1nc2ccccc2c(=O)[nH]1 | inconclusive [inhibitor, full curve, poor fit]
43 | Cc1ccnc(NC(=O)CCC(=O)N(CC(=O)NCc2ccc(F)cc2)CC2CCCO2)c1 (stereo not given) | inconclusive [inhibitor, partial curve]
44 | OC1(Cc2cc(-c3ccccc3)no2)CCN(CCCc2ccccc2)CC1 | inactive
45 | Cc1ccc(NC(=O)CSC2=C(C#N)C(c3ccco3)CC(=O)N2)cc1 (stereo not given) | inconclusive [inhibitor, partial curve, poor fit]
